Measurements from the BET-seq Pho4 binding data (Le et al. 2018).
The list shows a part of the results. These are noisy estimates, calculated here from bound and input reads.

These sequences were tested against T1, Pho4 (S. cerevisiae) (UniProt P07270) (assay: relative binding free energy (BET-seq); higher = weaker binding). Conditions: reference: library average.
T1 sequence: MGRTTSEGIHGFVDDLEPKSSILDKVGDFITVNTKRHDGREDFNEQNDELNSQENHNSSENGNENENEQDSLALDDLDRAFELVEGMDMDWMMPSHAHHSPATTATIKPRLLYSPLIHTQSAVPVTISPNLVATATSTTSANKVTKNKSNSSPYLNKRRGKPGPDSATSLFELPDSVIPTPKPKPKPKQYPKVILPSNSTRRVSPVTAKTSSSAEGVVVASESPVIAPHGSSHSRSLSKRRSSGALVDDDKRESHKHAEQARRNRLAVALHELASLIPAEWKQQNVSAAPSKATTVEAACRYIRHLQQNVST

Sequence | relative binding free energy
AGACTCACGTGGGGGT | 0.09 kcal/mol
GGTGACACGTGGAGCG | 0 kcal/mol
ATGGACACGTGGTTCA | 0.14 kcal/mol
TCTGGCACGTGTCGTA | -0.11 kcal/mol
GTATTCACGTGTGCTA | 0.36 kcal/mol
TGCTTCACGTGTGAAG | 0.24 kcal/mol
GAAGTCACGTGGGGCT | 0.13 kcal/mol
GTGAGCACGTGTTGAG | -0.05 kcal/mol
GTATGCACGTGTTGTG | 0.07 kcal/mol
TGTTGCACGTGCCTGA | 0.06 kcal/mol
GGGGCCACGTGAGGGA | 0.06 kcal/mol
AAGTTCACGTGCAGGG | 0.28 kcal/mol
GAGAGCACGTGAGAGG | 0.24 kcal/mol
GATGGCACGTGTGGTT | 0.03 kcal/mol
TAGTTCACGTGTGCTT | 0.3 kcal/mol
TGGGTCACGTGGGTTA | 0.08 kcal/mol
AACGGCACGTGGTGGT | -0.16 kcal/mol
AATCTCACGTGTTAGG | 0.28 kcal/mol
CGGGCCACGTGTTTGG | -0.06 kcal/mol
TCTTACACGTGTGAGG | 0.2 kcal/mol
ATTTTCACGTGAAATG | 0.27 kcal/mol
AGGGTCACGTGAAAAT | 0.39 kcal/mol
TTTACCACGTGGAGGG | -0.1 kcal/mol

Sequence | relative binding free energy
CTGGTCACGTGTGGAT | 0.09 kcal/mol
TAGATCACGTGGTTGG | 0.12 kcal/mol
GTCGACACGTGGCGTG | 0.05 kcal/mol
AATTGCACGTGATCGG | 0.04 kcal/mol
ATTTGCACGTGTCTGC | 0.06 kcal/mol
TTGAACACGTGTGCTG | 0.06 kcal/mol
GAGGACACGTGCTGTG | 0.04 kcal/mol
GCGATCACGTGTTTTG | 0.15 kcal/mol
TATAGCACGTGTGTCT | -0.05 kcal/mol
TTTCTCACGTGTTGTG | 0.14 kcal/mol
AGAATCACGTGTCTTG | 0.16 kcal/mol
TTAGGCACGTGGGGCT | -0.27 kcal/mol
CATTTCACGTGGGGAT | 0.18 kcal/mol
GGTGTCACGTGGGCGA | -0.08 kcal/mol
CATTTCACGTGGTATT | 0.04 kcal/mol
CTGTGCACGTGACGGT | -0.03 kcal/mol
TTAGGCACGTGCGGGA | -0.09 kcal/mol
ATGTTCACGTGGATTG | 0.33 kcal/mol
GGATGCACGTGCTTTT | 0.06 kcal/mol
TTTGGCACGTGGAGAT | -0.07 kcal/mol
ATCGGCACGTGGAGTG | -0.12 kcal/mol
TCAAGCACGTGATTTT | 0.16 kcal/mol
TAATTCACGTGGGTTT | 0.25 kcal/mol

Sequence | relative binding free energy
TGGTACACGTGCGCTG | -0.03 kcal/mol
GGTCACACGTGGGGTT | 0.06 kcal/mol
TAAGGCACGTGGAATT | 0.01 kcal/mol
ATCTACACGTGTTTGG | -0.01 kcal/mol
TGTCGCACGTGGTGAT | -0.07 kcal/mol
GTTGGCACGTGGACGG | 0.02 kcal/mol
GGTTACACGTGATGAA | 0.37 kcal/mol
GAAGGCACGTGATATG | 0.02 kcal/mol
AACTTCACGTGGAGGG | 0.15 kcal/mol
TGGTGCACGTGCGTCT | -0.11 kcal/mol
GACCGCACGTGTGGGG | 0.13 kcal/mol
AAGGTCACGTGAATTT | 0.33 kcal/mol
TCGGTCACGTGGTATG | 0.08 kcal/mol
TGGCGCACGTGTTGTA | -0.17 kcal/mol
AGTGGCACGTGGGTAT | -0.28 kcal/mol
TTTTTCACGTGTATTC | 0.34 kcal/mol
TCTTGCACGTGTTCGT | -0.01 kcal/mol
GGGGTCACGTGTCAAG | 0.11 kcal/mol
ACGGGCACGTGGTGGG | -0.2 kcal/mol
GGGGGCACGTGGTGCA | -0.19 kcal/mol
ATGTGCACGTGGAGGC | -0.08 kcal/mol
CTACTCACGTGTGGTG | 0.2 kcal/mol
ATTTGCACGTGTGTGT | 0.06 kcal/mol

Sequence | relative binding free energy
ATTTTCACGTGGTAGG | 0.22 kcal/mol
TAGTTCACGTGAGCAT | 0.39 kcal/mol
TTCTGCACGTGTCATG | 0.08 kcal/mol
GGGGCCACGTGCGGTG | -0.1 kcal/mol
ATATGCACGTGTGAGG | -0.02 kcal/mol
CGTAGCACGTGAGGAG | 0.3 kcal/mol
GGATGCACGTGTATTT | 0.1 kcal/mol
AGGCACACGTGGTAGG | 0 kcal/mol
ATGGCCACGTGATTAG | 0.1 kcal/mol
ACTGTCACGTGAAGGT | 0.23 kcal/mol
ATGTTCACGTGGCTTA | 0.01 kcal/mol
GATAGCACGTGAGATT | 0.24 kcal/mol
CGTAACACGTGATAGT | 0.2 kcal/mol
GGAAACACGTGAGTTT | 0.4 kcal/mol
AAATTCACGTGAGCGT | 0.34 kcal/mol
AGGAGCACGTGATGGT | 0 kcal/mol
CTTGGCACGTGAGAGG | 0.02 kcal/mol
TTACGCACGTGAGTGT | -0.01 kcal/mol
CTCGGCACGTGTGTTG | -0.03 kcal/mol
ATCATCACGTGTTGGG | 0.21 kcal/mol
GAGGGCACGTGTGGTG | -0.02 kcal/mol
CTTGGCACGTGGTATT | -0.2 kcal/mol
ATCTTCACGTGGTGGA | 0.18 kcal/mol

Sequence | relative binding free energy
ATTACCACGTGGTTTG | -0.03 kcal/mol
TTCTGCACGTGATGTG | -0.01 kcal/mol
AGGGCCACGTGATGCG | 0.15 kcal/mol
TTTGTCACGTGACAAT | 0.11 kcal/mol
CTCGGCACGTGAGGTG | 0.12 kcal/mol
TATCGCACGTGCTTTG | -0.05 kcal/mol
GATTTCACGTGTGGGG | 0.32 kcal/mol
GGTTTCACGTGAAATG | 0.4 kcal/mol
AGCGGCACGTGGGTAT | -0.25 kcal/mol
CGGCGCACGTGTGTTG | -0.01 kcal/mol
AAGTTCACGTGTAGGC | 0.4 kcal/mol
ATGGACACGTGCGTTA | -0.09 kcal/mol
TGGGACACGTGGGTAT | -0.14 kcal/mol
GGTCGCACGTGGGAGG | -0.11 kcal/mol
TGTTTCACGTGTATTC | 0.09 kcal/mol
TTTCACACGTGTTTCT | 0.18 kcal/mol
AACTTCACGTGAGTGT | 0.39 kcal/mol
TTTGCCACGTGGAAGT | -0.01 kcal/mol
TAGGCCACGTGGTGGG | -0.14 kcal/mol
GAAGACACGTGAGTGG | 0.26 kcal/mol
TGGAGCACGTGTTCGT | -0.06 kcal/mol
AGTGCCACGTGGGACT | -0.04 kcal/mol
GGATCCACGTGGGCTT | 0.15 kcal/mol
